Data taken from paper PMC4336329 (PLoS ONE, 2015).
The whole screen tested about 310,000 compounds, of which about 2,200 (0.71%) showed an effect of 50% or more. Effects have a minus sign here. Some of the results follow. Where a SMILES comes first, the peptide text is derived from it. The star is where a group is joined. OBn = c1ccc(CO*)cc1

molecular target: human ether-à-go-go-related gene (hERG) potassium channel (human, UniProt Q12809); assay: primary screen, population patch clamp on CHO cells stably expressing hERG
Sequence (Q12809 whole entry, looked up): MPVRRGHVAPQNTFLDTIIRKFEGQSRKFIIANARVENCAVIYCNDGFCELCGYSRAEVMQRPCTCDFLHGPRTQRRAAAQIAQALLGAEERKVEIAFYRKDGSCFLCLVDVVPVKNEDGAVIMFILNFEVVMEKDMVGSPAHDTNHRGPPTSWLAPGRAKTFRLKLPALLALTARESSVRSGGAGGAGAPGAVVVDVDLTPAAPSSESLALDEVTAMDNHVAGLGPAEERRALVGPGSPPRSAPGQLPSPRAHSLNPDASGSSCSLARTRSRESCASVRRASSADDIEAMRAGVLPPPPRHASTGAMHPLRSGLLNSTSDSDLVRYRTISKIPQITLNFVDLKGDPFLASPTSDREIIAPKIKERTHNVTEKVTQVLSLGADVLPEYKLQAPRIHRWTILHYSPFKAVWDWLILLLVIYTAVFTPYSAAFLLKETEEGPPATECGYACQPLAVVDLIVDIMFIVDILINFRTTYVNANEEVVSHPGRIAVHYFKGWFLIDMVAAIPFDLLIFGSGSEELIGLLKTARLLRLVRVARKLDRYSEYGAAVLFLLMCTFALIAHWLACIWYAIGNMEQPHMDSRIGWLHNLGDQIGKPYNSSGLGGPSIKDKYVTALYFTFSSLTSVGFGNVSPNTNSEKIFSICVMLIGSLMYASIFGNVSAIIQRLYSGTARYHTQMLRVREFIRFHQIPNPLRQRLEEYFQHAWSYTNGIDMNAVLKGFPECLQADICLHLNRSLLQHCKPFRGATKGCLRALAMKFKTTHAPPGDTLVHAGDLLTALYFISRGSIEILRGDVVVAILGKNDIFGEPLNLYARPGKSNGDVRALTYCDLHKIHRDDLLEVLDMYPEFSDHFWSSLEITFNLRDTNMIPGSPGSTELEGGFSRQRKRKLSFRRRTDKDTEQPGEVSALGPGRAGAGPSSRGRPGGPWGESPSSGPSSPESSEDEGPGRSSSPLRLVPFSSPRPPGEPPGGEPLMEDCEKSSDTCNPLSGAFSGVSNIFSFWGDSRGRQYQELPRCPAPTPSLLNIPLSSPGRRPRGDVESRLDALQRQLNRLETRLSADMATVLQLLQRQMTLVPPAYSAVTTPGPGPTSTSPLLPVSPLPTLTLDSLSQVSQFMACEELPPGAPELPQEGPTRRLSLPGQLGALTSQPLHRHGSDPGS

Compound	hERG current change (%, negative = inhibition) at 1uM
CCC1CCCCN1C(=O)CN1C(=O)CSC1=O (stereo not shown)	12.7%
COc1ccc(C2C(C(=O)N3CCN(c4ccccn4)CC3)CC(=O)N2c2ccc(OC)cc2)cc1 (stereo not shown)	-50.6%
CC1=C(C(=O)N2CCOCC2)C(c2ccc(C)cc2)NC(=S)N1 (stereo not shown)	10.5%
COc1ccc([C@@H]2[C@@H]3C(=O)N(C(C)(C)C)C(=O)[C@@H]3[C@]3(C)C(=O)N(c4cccc(C)c4)C(=O)N23)cc1	3%
COc1ccc(NC(=O)/C(=C\c2ccc(OC)c(OC)c2)NC(=O)c2ccco2)cc1	2.31%
CC(=O)c1ccccc1NC(=O)COC(=O)C1CCCN1S(=O)(=O)c1ccccc1F (stereo not shown)	15%
COc1ccccc1OC(C)c1nnc(SCC(=O)Nc2c(C)n(C)n(-c3ccccc3)c2=O)n1-c1ccccc1 (stereo not shown)	4.88%
CCN(CC)S(=O)(=O)c1ccc(N2CCOCC2)c(NC(=O)CC(C)(C)C)c1	8.32%
CC(=O)NS(=O)(=O)c1ccc(NC(=O)COc2cccc3c2OC(C)(C)C3)cc1	4.07%
O=C1C(C2=NC(c3ccccn3)C3C(=O)N(c4ccc(OC(F)(F)F)cc4)C(=O)C23)=C(O)c2ccccc21 (stereo not shown)	17.2%
Cl.NCC(=O)NCC(=O)OCc1ccccc1 (H-Gly-Gly-OBn)	4.62%
CCc1c(C)nc2ncnn2c1N1CCC(C(=O)N2CCN(c3ccc(F)cc3)CC2)CC1	-33.7%
O=C(Nc1ccccc1F)N1CCC(NC(=O)C23CC4CC(CC(C4)C2)C3)CC1	13.3%
CCCCN(C1CCS(=O)(=O)C1)S(=O)(=O)c1ccc(OC)cc1 (stereo not shown)	-0.331%
Cc1ccc(CNC(=O)C2c3ccccc3C(=O)N(C)C2c2c[nH]c3ccccc23)o1 (stereo not shown)	2.99%
CC(=O)Nc1ccc(C(=O)n2cnc3cc(C)c(C)cc32)cc1	5.02%
CC(C)C[C@H]1CN=C(Nc2ccccc2)N1CCC1CCCC1	-21.4%
Cc1ccc(S(=O)(=O)c2n[nH]n3c2nc(=O)c2ccccc23)cc1	3.8%
COc1ccc(N2CCCC2)c(NC(=O)COc2ccccc2)c1	9.19%
O=C(COc1ccc2c3c(c(=O)oc2c1)CCC3)NCCN1CCOCC1	3.14%
O=C(COC(=O)C1CC(=O)N(c2ccc3c(c2)OCCO3)C1)Nc1ccc2c(c1)CCC2 (stereo not shown)	10.3%
CC(C)CCNC(=O)NC(=O)COC(=O)C1=COCCO1	15.9%

Compound	hERG current change (%, negative = inhibition) at 1uM
CC1(C)Cc2c(c(-c3ccccc3)nc3[nH][nH]c(=O)c23)CO1	2.61%
CCc1nc(-n2[nH]c(=O)c3ccccc3c2=O)c2c3c(sc2n1)CCCC3	13.1%
CCN(CC)S(=O)(=O)c1ccc(N2CCOCC2)c(NC(=O)CN2C(=O)NC(C)(c3ccccc3)C2=O)c1 (stereo not shown)	9.74%
COc1ccc(OC)c(/C=N/NC(=O)CCc2ccc(O)c(O)c2)c1	1.21%
CCOC(=O)Cn1nc(NC(=O)c2ccc3c(c2)OCO3)cc1C	14.2%
CCOC(=O)C(=N/O)/C(C)=N/NC(=O)C(=O)Nc1cc(Cl)ccc1Cl	9.69%
CC(C)N(C(=O)COC(=O)c1ccc([N+](=O)[O-])cc1)c1ccccc1	15.8%
CN1C(=S)SC(N2OC3C(=O)N(c4ccccc4)C(=O)C3C2c2ccccc2)C1(C)C (stereo not shown)	6.25%
CC(C)C(=O)NCCc1nc2ccccc2n1C	7.75%
COc1cc(OC)cc(-c2cn[nH]c2N)c1	-4.19%
O=C(NCC1CCCO1)c1cc(Br)c(Br)s1 (stereo not shown)	7.3%
O=C(COC(=O)CCS(=O)(=O)c1ccc(F)cc1)NC1CCCCC1	-0.0657%
O=C(CSCC(=O)Nc1ccc2ccccc2c1)NCc1ccccc1	12.6%
CN=C(Nc1cc(C)nn1-c1ccccc1)c1ccccc1	6.61%
Cc1cccc(NC(=O)CNC(=O)COc2cccnc2[N+](=O)[O-])c1C	11.8%
CC1CCN(S(=O)(=O)c2cn(CC(=O)Nc3ccc(OC(F)(F)F)cc3)cn2)CC1	15.1%
CN1c2ccccc2C(O)=C(C(=S)Nc2ccccc2)S1(=O)=O	19.2%
COCCCNC(=O)C(=O)N/N=C/c1cc2c(cc1Br)OCO2	5.88%
CN1CCN(Cc2c(F)cccc2Cl)CC1	5.84%
Cc1ccccc1C(=O)N1CCN(c2ccc(NC(=S)NC(=O)c3ccco3)cc2)CC1	-3.1%
c1ccc2cc(CC3=NCCN3)ccc2c1	7.94%
N#Cc1nc(COc2ccc(Br)cc2)oc1N1CCCC1	-0.407%

Compound	hERG current change (%, negative = inhibition) at 1uM
CCOC(=O)C1Nc2ccc(C(F)(F)F)cc2C2c3ccccc3CC12 (stereo not shown)	5.95%
CCC(CC)C(=O)Nc1cccc(C(=O)Nc2nccs2)c1	19.2%
CC(=O)NC1=NN(C(C)=O)C(c2ccco2)S1 (stereo not shown)	16.5%
Cc1cccc(-c2nc(CN3CCCC(C(=O)NC4CCCC4)C3)c(C)o2)c1 (stereo not shown)	-26.4%
COCCn1c(SCC(=O)Nc2ccc(Cl)cn2)nc2ccccc21	-9.42%
CCCOc1ccc(-c2nc(C#N)c(N3CCN(CC)CC3)o2)cc1	1.77%
COc1ccc(S(=O)(=O)Nc2nc3c(s2)C(=O)CC(C)(C)C3)cc1	5.18%
Cc1cc(NC(=O)CSc2nc3c(c(=O)n2C)SCC3)no1	11.5%
Cc1ccc(C(C)NC(=O)c2ccco2)cc1 (stereo not shown)	1.87%
Cc1ccc2nc(NCC(N)=O)nc(-c3ccccc3)c2c1	7.6%
COc1ccc(NC(=O)CSCC(=O)Nc2ccccc2N2CCCC2)cc1	10.3%
CS(=O)(=O)N1CCCC(C(=O)NCc2ccc(F)cc2)C1 (stereo not shown)	6.57%
Cc1ccccc1C(=O)Nc1cccc(NC(=O)c2ncn[nH]2)c1	13.8%
O=C1/C(=C/c2ccccc2O)SC(=S)N1Cc1cccnc1	8.52%
CCS(=O)(=O)N1CCC(C(=O)Oc2ccc(C)c(C)c2)CC1	16.3%
CC12CCC(=O)N1C(C(=O)OCC(=O)Nc1cccc(Br)c1)CS2 (stereo not shown)	-1.7%
COc1cc(OC)cc(-c2nnc(SCc3c(F)cccc3Cl)o2)c1	6.61%
CCc1ccccc1NC(=O)c1cc([N+](=O)[O-])ccc1N1CCOCC1	1.7%
O=C(CC(c1ccccc1)c1ccccc1)Nc1ccc2c(c1)OCCO2	-0.171%
COc1ccc(NC(=O)CN(C)C(=O)c2ccc(N3CCCCC3)c([N+](=O)[O-])c2)cc1	-21.2%
CCCc1nc2ccccc2c(=O)n1CC(=O)c1ccc(F)cc1	10.5%
O=C(N/N=C/C1C(c2ccccc2)C1(Cl)Cl)c1cccc(Cl)c1 (stereo not shown)	7.97%

Compound	hERG current change (%, negative = inhibition) at 1uM
CN(CC(=O)Nc1ccc(Cl)c(Cl)c1)Cc1nnc(-c2ccc(F)cc2)o1	0.919%
CC(C)C(=O)Nc1cccc(-c2cnc3ccccc3n2)c1	11.7%
COc1ccc(NC(=S)NC(=O)/C=C/c2ccccc2)cc1	10.6%
Cc1cccc(OCC(=O)N2CCN(S(C)(=O)=O)CC2)c1	9.87%
Cc1ccc(C(=O)NCC(=O)OCn2nnc3ccccc3c2=O)cc1	10%
COc1ccc(C(=O)COC(=O)Cc2n[nH]c(=O)c3ccccc23)c(OC)c1	13.1%
CCCn1c(NCc2c[nH]c3ccccc23)nc2ccccc21	1.35%
O=C(NCCO)C(=O)Nc1cc2c3c(c1)CCC(=O)N3CCC2	3.17%
COc1ccc(S(=O)(=O)Nc2c(C(=O)O)[nH]c3ccccc23)cc1	9.01%
CCOC(=O)C1(Cc2cccc(Cl)c2)CCCN(C(=O)c2occc2C)C1 (stereo not shown)	10.3%
COc1ccc(NC2CCCN(C(=O)CCCn3cncn3)C2)cc1OC (stereo not shown)	7.19%
CC(C)c1ccccc1NC(=O)CNC(C)c1ccc(F)cc1 (stereo not shown)	10.6%
COc1ccc(NS(=O)(=O)c2cccc(C(=O)NNC(=O)c3ccc(O)c(Cl)c3)c2)cc1	9.47%
COc1ccc(Nc2cc(C(=O)NCc3cccnc3)c3ccccc3n2)c(OC)c1	11.3%
COc1ccc(CNC(=O)CSc2nc3ccc(N)cc3s2)cc1	11.8%
Cc1c(OCC(=O)N(C)c2ccccc2)ccc2c3c(c(=O)oc12)CCC3	5.87%
CCOC(=O)C(CC)/C(C)=N\NC(=O)CCC(=O)Nc1ccc(Cl)cc1Cl (stereo not shown)	5.13%
Cc1cc(C)c2[nH]c(=O)c(C(c3nnnn3CC3CCCO3)N3CCC(C)CC3)cc2c1 (stereo not shown)	2.18%
O=C(NCC(=O)N1CCN(c2ccccc2)CC1)c1ccc(Br)o1	-7.83%
Cc1cc(Nc2ccc(Br)cc2)nc(-c2ccccc2O)n1	13.3%
O=[N+]([O-])[N-][n+]1cnn(Cc2ccccc2)c1	9.94%
CN(Cc1c(F)cccc1Cl)C(=O)c1cc2ccccc2o1	3.98%
